# Data: the supplement of paper PMC7826260
# The other results are listed elsewhere or left out. One pool of 16,384 single-stranded DNAs met each Rep nickase domain in vitro for 1 h at 37 °C with 3 µM enzyme; only the middle of the 90-letter strands is printed. Numbers give uncut DNA relative to the enzyme-free pool, as log2; strong cutting gives strongly negative numbers. There is no active / inactive call. Because reads are shares of a total, they shift together; values above 0 arise when much of the pool is cut.
# What was measured:
# Test in all cases: uncleaved DNA left, log2 of reads against the no-enzyme library (log2 ratio); higher = less cleavage (more negative = more Rep cleavage of the k-mer); sequences stand for … in CTCGTCCG…ACCGGAGA
# [1] = tested on: T1, Rep nickase domain of Muscovy duck circovirus
# T1 sequence (residues 1-111 of Rep, tag left off): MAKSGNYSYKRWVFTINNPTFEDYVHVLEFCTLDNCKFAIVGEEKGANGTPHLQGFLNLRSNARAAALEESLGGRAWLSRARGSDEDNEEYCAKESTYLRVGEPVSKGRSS
# Procedure: (§1)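 A pool of 90-nt single-stranded DNAs with seven random bases just before the constant AC of the nick site (name = the seven bases) was cut by 3 µM recombinant His6-SUMO-tagged Rep nickase domain (300 nM DNA, 50 mM HEPES pH 8.0, 50 mM NaCl, 1 mM MnCl2, 1 h, 37 °C, three replicates). Uncut DNA was amplified and sequenced.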
# [2] = tested on: T2, Rep nickase domain of banana bunchy top virus
# T2 sequence (residues 1-94 of Rep, tag left off): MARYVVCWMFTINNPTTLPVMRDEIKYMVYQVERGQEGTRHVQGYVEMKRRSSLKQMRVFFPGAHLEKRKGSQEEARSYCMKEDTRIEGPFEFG
# Procedure: as §1
# [3] = tested on: T3, Rep nickase domain of cabbage leaf curl virus
# T3 sequence (residues 1-116 of Rep, tag left off): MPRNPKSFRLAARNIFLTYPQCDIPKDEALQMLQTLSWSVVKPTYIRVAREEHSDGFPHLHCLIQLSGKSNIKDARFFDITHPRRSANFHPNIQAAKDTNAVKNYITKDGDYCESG
# Procedure: as §1
# [4] = tested on: T4, Rep nickase domain of chickpea chlorotic dwarf virus
# T4 sequence (residues 1-124 of Rep, tag left off): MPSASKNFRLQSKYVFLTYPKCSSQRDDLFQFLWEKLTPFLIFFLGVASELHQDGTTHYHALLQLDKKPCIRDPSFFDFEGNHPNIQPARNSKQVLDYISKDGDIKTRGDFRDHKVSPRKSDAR
# Procedure: as §1
# [5] = tested on: T5, Rep nickase domain of faba bean necrotic yellows virus
# T5 sequence (residues 1-98 of Rep, tag left off): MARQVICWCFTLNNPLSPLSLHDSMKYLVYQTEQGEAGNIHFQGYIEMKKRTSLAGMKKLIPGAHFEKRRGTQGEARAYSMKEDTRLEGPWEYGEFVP
# Procedure: as §1
# [6] = tested on: T6, Rep nickase domain of maize striate mosaic virus
# T6 sequence (residues 1-117 of Rep, tag left off): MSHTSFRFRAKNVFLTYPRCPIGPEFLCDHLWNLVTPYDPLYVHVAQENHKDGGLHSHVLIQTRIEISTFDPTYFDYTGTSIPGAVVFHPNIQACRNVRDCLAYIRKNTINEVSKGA
# Procedure: as §1
# [7] = tested on: T7, Rep nickase domain of porcine circovirus 2
# T7 sequence (residues 2-116 of Rep, tag left off): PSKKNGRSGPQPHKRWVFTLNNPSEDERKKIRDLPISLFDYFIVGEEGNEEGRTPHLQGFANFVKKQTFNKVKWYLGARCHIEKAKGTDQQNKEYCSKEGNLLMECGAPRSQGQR
# Procedure: as §1
# [8] = tested on: T8, Rep nickase domain of tomato golden mosaic virus
# T8 sequence (residues 1-124 of Rep, tag left off): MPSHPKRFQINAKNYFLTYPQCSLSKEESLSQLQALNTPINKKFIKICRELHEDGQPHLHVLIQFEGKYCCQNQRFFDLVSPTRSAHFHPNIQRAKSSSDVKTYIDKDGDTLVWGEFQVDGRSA
# Procedure: as §1
# [9] = tested on: T9, Rep nickase domain of tomato yellow leaf curl virus
# T9 sequence (residues 1-136 of Rep, tag left off): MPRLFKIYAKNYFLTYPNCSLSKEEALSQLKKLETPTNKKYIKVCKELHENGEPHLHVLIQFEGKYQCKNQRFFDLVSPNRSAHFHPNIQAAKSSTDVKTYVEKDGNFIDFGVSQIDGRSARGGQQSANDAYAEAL
# Procedure: as §1
# [10] = tested on: T10, Rep nickase domain of wheat dwarf virus
# T10 sequence (residues 1-137 of Rep, tag left off): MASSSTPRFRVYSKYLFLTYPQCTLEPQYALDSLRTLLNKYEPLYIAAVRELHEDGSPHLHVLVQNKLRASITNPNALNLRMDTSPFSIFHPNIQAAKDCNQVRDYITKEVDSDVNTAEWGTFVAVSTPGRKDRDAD
# Procedure: as §1
Sequence,uncleaved DNA left (log2) [1],uncleaved DNA left (log2) [2],uncleaved DNA left (log2) [3],uncleaved DNA left (log2) [4],uncleaved DNA left (log2) [5],uncleaved DNA left (log2) [6],uncleaved DNA left (log2) [7],uncleaved DNA left (log2) [8],uncleaved DNA left (log2) [9],uncleaved DNA left (log2) [10]
GAAACTT,-0.0694,-0.128,-1.87,-2.1,-0.00675,0.909,-1.99,-0.2,0.0546,-0.497
AGTAGTT,0.00669,-0.119,-0.136,-1.46,-0.37,-0.0865,-3.4,-0.0322,-0.0776,-0.137
TAAGGTG,0.193,0.0489,0.109,0.319,0.155,0.312,0.179,0.159,-0.0823,0.0397
GAGGACT,-0.0979,0.104,0.833,1.97,-0.0699,2.21,0.146,0.109,0.0638,0.211
CCTCCTG,-0.128,-0.0699,-0.223,-0.13,-0.152,0.116,-0.0523,-0.0148,-0.194,-0.0814
TGGATTG,0.0855,0.0501,0.0243,0.503,0.0772,0.467,0.168,0.0176,0.00717,0.0612
CGTCAGC,-0.0291,0.133,0.412,0.789,0.114,0.56,0.21,0.0804,0.151,0.161
ATGCGCC,-0.0134,-0.151,-0.608,-0.644,-0.0657,-0.993,-0.0674,-0.22,-0.0651,-0.213
GCTTGGT,-0.0869,0.0989,0.476,1.72,0.0752,1.26,-0.466,0.116,0.106,0.0527
CTTCACA,-0.122,0.129,-0.113,-1.49,-0.00751,-0.592,-0.123,-0.109,0.102,0.128
GATCATT,0.0349,0.0805,0.384,0.405,-0.393,1.73,-0.724,-0.297,0.0288,0.232
GCGTCAA,0.000868,0.124,0.329,0.71,0.0857,0.695,0.158,0.183,0.122,0.14
CGCATTC,0.0106,-0.0195,-0.32,-0.181,-0.0687,-0.947,0.0557,-0.145,-0.00557,-0.0445
TGAAGAG,0.0418,0.0914,-0.0843,-0.335,0.0915,-0.802,0.141,0.1,0.145,-0.0208
TGAGTCT,-0.0815,-0.0247,-0.0814,-1.38,-0.0541,-0.253,-0.167,-0.143,-0.0594,-0.0895
TATGACT,0.0169,0.0078,-0.848,-2.54,0.011,0.374,-0.108,-0.127,0.0406,0.0491
ACCGCAT,0.0358,-0.112,-0.0991,-0.0768,0.186,-0.384,0.203,0.11,-0.0791,-0.14
TCATTAG,-0.0014,-0.0182,-0.777,-0.573,0.00937,-1.26,0.103,-0.00543,0.0716,-0.0728
AAGCCCG,-0.0617,-0.0707,-0.598,-0.567,-0.0783,-1.07,0.185,0.0346,-0.0361,-0.0988
CCTGCAA,0.000978,0.0679,-0.229,-0.629,0.0763,-0.972,0.159,-0.0128,0.0208,-0.0252
TACGAGA,0.0181,0.0585,0.737,1.13,0.099,1.15,0.0724,0.0723,0.00592,0.0502
TAGAGTT,0.0514,-2.37,-2.66,-2.61,-1.39,-0.255,-3.57,-0.271,0.122,-0.298
TCGCCCA,-0.115,0.00234,0.192,-0.648,0.11,-0.342,-0.0881,0.0966,0.0711,0.111
GTGTGTT,-1.25,-0.332,0.087,0.382,-0.537,1.35,-2.57,-0.0439,-0.132,-0.121
TTGCCGG,0.00481,0.00738,0.246,0.79,-0.0626,0.537,0.0404,-0.0141,-0.096,-0.0835
CTACACC,0.000255,-0.0751,-0.164,-1.54,-0.109,-0.534,-0.19,-0.0181,-0.0316,-0.00832
TGTATGC,0.0286,-0.0398,-0.168,-0.354,0.00235,-0.957,0.0689,-0.174,0.0287,-0.107
GGTTACA,0.0554,0.132,0.522,1.05,0.0426,1.97,0.149,0.0471,0.0858,0.124
TCTTTAG,0.0433,-0.0819,-0.404,-0.621,0.0739,-1.15,0.142,-0.00119,0.112,-0.00215
CATGCTT,-0.0223,-1.25,-0.452,-2.47,-0.0979,-0.864,-0.98,0.0571,-0.00648,-0.0317
